In the supplement of paper PMC3334620:
Whole data set: some 33,000 sequences, median “E-score (-0.5 to 0.5)” near -0.043, cut for the highest 2% near 0.37. The list shows a part of the results.

Biological target: T1, Upc2 (UniProt Q12151)
T1 sequence: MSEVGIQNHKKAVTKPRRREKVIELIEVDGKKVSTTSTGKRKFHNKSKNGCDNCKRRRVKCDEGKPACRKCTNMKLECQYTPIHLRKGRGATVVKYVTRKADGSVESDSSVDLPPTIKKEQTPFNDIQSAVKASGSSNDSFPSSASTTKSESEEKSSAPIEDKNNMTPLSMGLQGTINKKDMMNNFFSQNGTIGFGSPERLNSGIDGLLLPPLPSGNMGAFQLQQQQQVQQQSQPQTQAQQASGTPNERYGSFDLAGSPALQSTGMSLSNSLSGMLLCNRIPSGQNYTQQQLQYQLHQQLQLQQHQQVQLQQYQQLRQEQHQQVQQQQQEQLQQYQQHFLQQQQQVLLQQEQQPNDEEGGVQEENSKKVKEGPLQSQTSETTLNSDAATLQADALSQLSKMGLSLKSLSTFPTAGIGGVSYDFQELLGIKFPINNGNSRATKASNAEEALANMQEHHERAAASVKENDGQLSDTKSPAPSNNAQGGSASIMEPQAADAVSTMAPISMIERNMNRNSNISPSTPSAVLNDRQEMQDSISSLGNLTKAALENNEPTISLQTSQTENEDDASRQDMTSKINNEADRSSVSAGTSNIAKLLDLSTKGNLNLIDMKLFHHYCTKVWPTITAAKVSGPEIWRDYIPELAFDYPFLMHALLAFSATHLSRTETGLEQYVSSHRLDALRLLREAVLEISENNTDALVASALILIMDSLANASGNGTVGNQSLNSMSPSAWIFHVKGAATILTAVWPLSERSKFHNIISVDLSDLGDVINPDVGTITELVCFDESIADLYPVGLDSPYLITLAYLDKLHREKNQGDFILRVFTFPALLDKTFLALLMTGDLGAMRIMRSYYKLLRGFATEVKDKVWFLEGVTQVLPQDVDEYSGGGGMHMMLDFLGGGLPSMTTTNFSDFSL
Assay: PBM E-score (8-mer binding enrichment) (E-score (-0.5 to 0.5)); higher = stronger / more preferred TF binding; most listed sequences are background and not binding sites
Conditions: protein concentration: 200 nM; construct: GST-full length
How it was run: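 Yeast transcription factors carrying a GST tag, as full-length proteins or DNA-binding domains, were produced by PURExpress in vitro transcription/translation. About 100-200 nM protein was applied to universal all-10-mer Agilent arrays, double-stranded by primer extension on fresh or once-stripped slides. Bound protein was detected with fluorescent anti-GST, and scans were normalised with masliner. The Universal PBM Analysis Suite gave each ungapped eight-base word, pooled with its reverse complement, an E-score, a modified Wilcoxon-Mann-Whitney statistic.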

| Sequence | PBM E-score |
| --- | --- |
| ACGGCTGA | 0.139 |
| CCTTCTTC | -0.159 |
| CGGTGATC | -0.152 |
| TGAACGCA | 0.189 |
| AATCTTCG | 0.162 |
| AGCCGACA | -0.152 |
| CTATCTCC | -0.197 |
| AAGCGATG | 0.173 |
| GGAGATTA | -0.182 |
| GAAAACAA | -0.00381 |
| TGGGCCAA | -0.162 |
| CAGGTGGG | -0.138 |
| CAAGATAC | 0.0716 |
| ATAAGCAT | -0.00636 |
| ATGTATAA | 0.0845 |
| ATGGAAGA | -0.3 |
| AATCCCAC | -0.122 |
| GCTCCAGA | -0.127 |
| CCCCAGCC | -0.0305 |
| CGTCGCCC | -0.104 |
| ATGTGGGC | -0.107 |
| CATTACGC | 0.023 |

| Sequence | PBM E-score |
| --- | --- |
| ACGGACGG | 0.105 |
| CGATAGGA | 0.00018 |
| CACAGCTA | -0.106 |
| GCCATGCC | -0.216 |
| GCATTGGA | -0.214 |
| GAAGGGTA | -0.103 |
| ATACTAAT | 0.0186 |
| GTGGGTTA | -0.0799 |
| CATAATAC | 0.141 |
| CAGATATG | -0.0342 |
| ATTCTAGC | -0.0542 |
| TCAAAGAA | 0.0392 |
| TAAAAGCA | 0.113 |
| AGAATAAT | -0.0388 |
| TCTTGGAA | -0.143 |
| AGGCCACC | -0.0599 |
| AGGCTCAC | -0.179 |
| CTTCGGAA | 0.09 |
| GACCCCCC | -0.143 |
| ATACTTCG | 0.0638 |
| AGCATTTC | -0.0182 |
| CACTTAAA | 0.0816 |

| Sequence | PBM E-score |
| --- | --- |
| CCTCTACA | -0.0822 |
| AAAGTTGA | -0.0343 |
| ATGTTTGG | 0.0573 |
| CCAACAAC | -0.0409 |
| AAGCGCCG | -0.115 |
| GATCTTGA | -0.0606 |
| GGACGAAA | -0.0427 |
| AGGCCTTA | 0.0592 |
| TATTATCA | -0.0152 |
| CAATGACG | -0.246 |
| ATGTAAGC | 0.0905 |
| CCTAAAGA | -0.134 |
| GTAATCGA | 0.25 |
| AGTGGCTA | -0.0762 |
| ACGAACAC | 0.346 |
| TGGAAACA | -0.0737 |
| GAGATTCA | -0.0814 |
| AAATCCTG | -0.00878 |
| CACCGTAC | 0.401 |
| CATGCTTA | -0.192 |
| TCTAATCA | -0.123 |
| GGATTTTA | 0.106 |

| Sequence | PBM E-score |
| --- | --- |
| CTACGTAG | 0.0867 |
| AAGCGTCT | -0.0495 |
| ACAAGCGG | -0.00873 |
| AATAGACC | -0.221 |
| ACCGTAAT | 0.0464 |
| GATGTCAC | -0.178 |
| ATGAGAAC | -0.0319 |
| ATCATGAC | -0.0943 |
| ACTATCAA | 0.0795 |
| CCAGCCGA | -0.176 |
| CGGAACTC | 0.0475 |
| CCCTTGAC | -0.162 |
| CAACTATG | -0.13 |
| CAGGACTA | -0.147 |
| CGATTTCA | -0.0133 |
| CGTTTCCA | 0.281 |
| AAGATCTT | 0.026 |
| CTTTTTAA | -0.0854 |
| CGGCGTCA | 0.0527 |
| CTCTGCAG | -0.274 |
